# Test results taken from article PMC11995724, “Antibiotic target discovery by integrated phenotypic and activity-based profiling of electrophilic fragments” (Cell chemical biology, 2025).
# Out of some 3,200 compounds screened, about 110 (3.4%) showed an effect of 50% or more. This is one part of the list.
# System: T1, V. cholerae SAD30
# T1 construct: SAD30
# Design: species or system S. aureus MSSA476 (TSB) or V. cholerae SAD30 (LB); 384-well bacterial growth screen at 25 uM, OD600 relative to DMSO control
# Settings: relative growth, OD600, LB; 25 µM; inhibitor
row,Structure (SMILES),% of control remaining [%]
1,"N#CCSc1ccccc1NC(=O)CCl [6-C11, 2-chloro-N-{2-[(cyanomethyl)sulfanyl]phenyl}acetamide]",90.0938
2,"COc1ccc(NC(C)=O)cc1NC(=O)C(C)Cl (stereo not drawn) [4-M08, 2-chloro-N-(5-acetamido-2-methoxyphenyl)propanamide]",98.6845
3,"C=CC(=O)NCCCn1cnc2ccccc21 [2-P11, N-[3-(1H-1,3-benzodiazol-1-yl)propyl]prop-2-enamide]",103.32
4,"O=C(CCl)C1(F)CCCCC1 [10-K19, 2-chloro-1-(1-fluorocyclohexyl)ethan-1-one]",99.7467
5,"C=CC(=O)N1C2C=C(c3nccn3C)CC1CC2 (stereo not drawn) [3-G03, 1-[3-(1-methyl-1H-imidazol-2-yl)-8-azabicyclo[3.2.1]oct-2-en-8-yl]prop-2-en-1-one]",111.145
6,"CC(C)NC(=O)C(C#N)=Cc1cccc(Cl)c1Cl [9-C07, 2-cyano-3-(2,3-dichlorophenyl)-N-(propan-2-yl)prop-2-enamide]",84.9082
7,"C=CC(=O)N1CCC(C(=O)NC2CCN(C(=O)C(C)(C)C)CC2)CC1 [3-I21, N-[1-(2,2-dimethylpropanoyl)piperidin-4-yl]-1-(prop-2-enoyl)piperidine-4-carboxamide]",96.3242
8,"C=CC(=O)Nc1cc(NC(=O)c2cnn(-c3ccccc3)c2)ccc1F [2-G11, N-[4-fluoro-3-(prop-2-enamido)phenyl]-1-phenyl-1H-pyrazole-4-carboxamide]",76.1459
9,"N#CC(=Cc1ccco1)C(=O)Nc1cc2c(cc1Cl)NC(=O)CO2 [9-D20, N-(6-chloro-3-oxo-3,4-dihydro-2H-1,4-benzoxazin-7-yl)-2-cyano-3-(furan-2-yl)prop-2-enamide]",90.0748
10,"C=CC(=O)N(C)Cc1ncc(C(F)(F)F)n1C [2-D19, N-methyl-N-{[1-methyl-5-(trifluoromethyl)-1H-imidazol-2-yl]methyl}prop-2-enamide]",94.6734
11,"C=CC(=O)N1CCOC(Cn2cncn2)C1 (stereo not drawn) [1-F20, 1-{2-[(1H-1,2,4-triazol-1-yl)methyl]morpholin-4-yl}prop-2-en-1-one]",90.2846
12,"CCN(CC)c1ccc(NC(=O)CCl)cc1 [6-N10, 2-chloro-N-[4-(diethylamino)phenyl]acetamide]",90.5489
13,"O=C(CCl)Nc1ccnn1Cc1cccs1 [5-O13, 2-chloro-N-{1-[(thiophen-2-yl)methyl]-1H-pyrazol-5-yl}acetamide]",85.5732
14,"CCCN(CC1CC1)C(=O)CCl [5-H11, 2-chloro-N-(cyclopropylmethyl)-N-propylacetamide]",93.1386
15,"C=CC(=O)N1CCOC2(CCCC2)C1 [3-I11, 1-{6-oxa-9-azaspiro[4.5]decan-9-yl}prop-2-en-1-one]",77.0924
16,"CCN(CC)S(=O)(=O)c1ccc(Cl)c(NC(=O)CCl)c1 [5-J12, 2-chloro-N-[2-chloro-5-(diethylsulfamoyl)phenyl]acetamide]",93.4748
17,"Cc1cc(C=C(C#N)C(=O)Nc2ccncc2)c(C)n1C1CC1 [8-K14, 2-cyano-3-(1-cyclopropyl-2,5-dimethyl-1H-pyrrol-3-yl)-N-(pyridin-4-yl)prop-2-enamide]",66.6893
18,"CC(Cl)C(=O)Nc1ccc2c(c1)C(=O)c1ccccc1C2=O (stereo not drawn) [4-G06, 2-chloro-N-(9,10-dioxo-9,10-dihydroanthracen-2-yl)propanamide]",77.1188
19,"C=CC(=O)NCC(=O)Nc1ccc2c[nH]nc2c1 [1-L11, N-{[(2H-indazol-6-yl)carbamoyl]methyl}prop-2-enamide]",90.7324
20,"Cc1ccc(CN(C(=O)CCl)C2CC2)o1 [6-E03, 2-chloro-N-cyclopropyl-N-[(5-methylfuran-2-yl)methyl]acetamide]",97.6775
21,"C=CC(=O)NCc1nc2c(s1)CCCC2 [1-G18, N-[(4,5,6,7-tetrahydro-1,3-benzothiazol-2-yl)methyl]prop-2-enamide]",87.145
22,"CC(Cl)C(=O)Nc1cccc(-c2ncc3n2CCCC3)c1 (stereo not drawn) [5-F19, 2-chloro-N-(3-{5H,6H,7H,8H-imidazo[1,5-a]pyridin-3-yl}phenyl)propanamide]",78.344
23,"C=CC(=O)NC1CCC(c2nc(-c3ccccc3)n[nH]2)CC1 (stereo not drawn) [1-P05, N-[4-(3-phenyl-1H-1,2,4-triazol-5-yl)cyclohexyl]prop-2-enamide]",97.3094
24,"Cc1cc(C(=O)CCl)c(C)n1-c1ccccc1 [10-L20, 2-chloro-1-(2,5-dimethyl-1-phenyl-1H-pyrrol-3-yl)ethan-1-one]",100.682
25,"Cc1cc(C(=O)CCl)c(C)n1CCc1cccs1 [10-F16, 2-chloro-1-{2,5-dimethyl-1-[2-(thiophen-2-yl)ethyl]-1H-pyrrol-3-yl}ethan-1-one]",110.189
26,"CC(NC(=O)CCl)c1cc(F)ccc1N(C)C (stereo not drawn) [5-L11, 2-chloro-N-{1-[2-(dimethylamino)-5-fluorophenyl]ethyl}acetamide]",95.3242
27,"N#CC(=Cc1cccnc1)C(=O)Nc1cccc2ccccc12 [8-L17, 2-cyano-N-(naphthalen-1-yl)-3-(pyridin-3-yl)prop-2-enamide]",72.6717
28,"C=CC(=O)NCC(F)(F)c1cccnc1 [1-O12, N-[2,2-difluoro-2-(pyridin-3-yl)ethyl]prop-2-enamide]",87.4439
29,"Cc1cc(C(=O)CCl)c(C)n1-c1cccc(Cl)c1 [10-N18, 2-chloro-1-[1-(3-chlorophenyl)-2,5-dimethyl-1H-pyrrol-3-yl]ethan-1-one]",92.4216
30,"C=CC(=O)N[C@H]1CCO[C@@H]1c1ccnn1C [2-K19, N-[(2S,3S)-2-(1-methyl-1H-pyrazol-5-yl)oxolan-3-yl]prop-2-enamide]",92.203
